# Assay results: the supplement of paper PMC8728848
# The list shows a part of the results.
# B1: AT1G73650(15) (Arabidopsis thaliana), F4HRY1 (protein)
# chain: MGTVLDSHFLALTAIVTVIYQFIFFVITALFKFDQVTDFAGSTNFVILAVLTLVLKASWHFRQIVLTLLVVVWGLRLGIFLLMETRILQWGEDRRFDEQRGNIVRLIIFWTLQAVWVWTVSLPLTLVNASDGGGSLKPADVIGWTMETWVFGFLIEAAADQQKLSFKNSPENRGKWCDVGVWKYSRHPNYFGEMETLLWWGIFVAASPVLEGAEYLVIFGPLFLTLLLLFVSGIPLLEASADKKHGNSGAYRSYKKTTSPLILFPRGVYGNLPGWFKTVFLFEFPFYSRNLPQEGRLQNSKEKEVKDD
# What was measured:
# Experiment in all cases: glycan array binding signal (z-score within array); higher = stronger binding
# Settings in all cases: glycan notation: IUPAC condensed, linker removed
# [1] = target: Neu5Ac(a2-6)Gal(b1-4)GlcNAc(b1-2)Man(a1-3)[Man(a1-6)]Man(b1-4)GlcNAc(b1-4)GlcNAc
# Summary of the method: (§1)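 The Consortium for Functional Glycomics database supplied 3228 glycan arrays, of which those lacking an available protein sequence were dropped. The binding signal, a within-array Z-score, was averaged across arrays of the same protein sequence and across linkers. Negative scores can be read as non-binding.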
# [2] = target: Neu5Ac(a2-6)Gal(b1-4)GlcNAc(b1-2)Man(a1-3)[Neu5Ac(a2-3)Gal(b1-4)GlcNAc(b1-2)Man(a1-6)]Man(b1-4)GlcNAc(b1-4)GlcNAc
# Summary of the method: as §1
# [3] = target: Neu5Ac(a2-6)Gal(b1-4)GlcNAc(b1-2)Man(a1-3)[Neu5Ac(a2-6)Gal(b1-4)GlcNAc(b1-2)Man(a1-6)]Man(b1-4)GlcNAc(b1-4)GlcNAc
# Summary of the method: as §1
# [4] = target: Neu5Ac(a2-6)Gal(b1-4)GlcNAc(b1-2)Man(a1-3)[Neu5Ac(a2-6)Gal(b1-4)GlcNAc(b1-2)Man(a1-6)]Man(b1-4)GlcNAc(b1-4)[Fuc(a1-6)]GlcNAc
# Summary of the method: as §1
# [5] = target: Neu5Ac(a2-6)Gal(b1-4)GlcNAc(b1-2)Man(a1-6)Man(b1-4)GlcNAc(b1-4)GlcNAc
# Summary of the method: as §1
# [6] = target: Neu5Ac(a2-6)Gal(b1-4)GlcNAc(b1-2)Man(a1-6)[Gal(b1-4)GlcNAc(b1-2)Man(a1-3)]Man(b1-4)GlcNAc(b1-4)GlcNAc
# Summary of the method: as §1
# [7] = target: Neu5Ac(a2-6)Gal(b1-4)GlcNAc(b1-2)Man(a1-6)[GlcNAc(b1-2)Man(a1-3)]Man(b1-4)GlcNAc(b1-4)GlcNAc
# Summary of the method: as §1
# [8] = target: Neu5Ac(a2-6)Gal(b1-4)GlcNAc(b1-2)Man(a1-6)[Man(a1-3)]Man(b1-4)GlcNAc(b1-4)GlcNAc
# Summary of the method: as §1
# [9] = target: Neu5Ac(a2-6)Gal(b1-4)GlcNAc(b1-2)[Neu5Ac(a2-6)Gal(b1-4)GlcNAc(b1-4)]Man(a1-3)[GlcNAc(b1-4)][Neu5Ac(a2-6)Gal(b1-4)GlcNAc(b1-2)[Neu5Ac(a2-6)Gal(b1-4)GlcNAc(b1-6)]Man(a1-6)]Man(b1-4)GlcNAc(b1-4)GlcNAc
# Summary of the method: as §1
# [10] = target: Neu5Ac(a2-6)Gal(b1-4)GlcNAc(b1-2)[Neu5Ac(a2-6)Gal(b1-4)GlcNAc(b1-4)]Man(a1-3)[GlcNAc(b1-4)][Neu5Ac(a2-6)Gal(b1-4)GlcNAc(b1-4)Man(a1-6)]Man(b1-4)GlcNAc(b1-4)GlcNAc
# Summary of the method: as §1
# [11] = target: Neu5Ac(a2-6)Gal(b1-4)GlcNAc(b1-2)[Neu5Ac(a2-6)Gal(b1-4)GlcNAc(b1-6)]Man(a1-6)[Neu5Ac(a2-6)Gal(b1-4)GlcNAc(b1-2)Man(a1-3)][GlcNAc(b1-4)]Man(b1-4)GlcNAc(b1-4)GlcNAc
# Summary of the method: as §1
# [12] = target: Neu5Ac(a2-6)Gal(b1-4)GlcNAc(b1-3)Gal(b1-3)GlcNAc
# Summary of the method: as §1
# [13] = target: Neu5Ac(a2-6)Gal(b1-4)GlcNAc(b1-3)Gal(b1-4)GlcNAc
# Summary of the method: as §1
# [14] = target: Neu5Ac(a2-6)Gal(b1-4)GlcNAc(b1-3)Gal(b1-4)GlcNAc(b1-2)Man(a1-3)[Neu5Ac(a2-6)Gal(b1-4)GlcNAc(b1-3)Gal(b1-4)GlcNAc(b1-2)Man(a1-6)]GalNAc
# Summary of the method: as §1
# [15] = target: Neu5Ac(a2-6)Gal(b1-4)GlcNAc(b1-3)Gal(b1-4)GlcNAc(b1-3)Gal(b1-4)GlcNAc
# Summary of the method: as §1
# [16] = target: Neu5Ac(a2-6)Gal(b1-4)GlcNAc(b1-3)Gal(b1-4)GlcNAc(b1-3)Gal(b1-4)GlcNAc(b1-2)Man(a1-3)[Neu5Ac(a2-6)Gal(b1-4)GlcNAc(b1-3)Gal(b1-4)GlcNAc(b1-3)Gal(b1-4)GlcNAc(b1-2)Man(a1-6)]GalNAc
# Summary of the method: as §1
# [17] = target: Neu5Ac(a2-6)Gal(b1-4)GlcNAc(b1-3)Gal(b1-4)GlcNAc(b1-3)GalNAc
# Summary of the method: as §1
# [18] = target: Neu5Ac(a2-6)Gal(b1-4)GlcNAc(b1-3)Gal(b1-4)GlcNAc(b1-3)[Neu5Ac(a2-6)Gal(b1-4)GlcNAc(b1-3)Gal(b1-4)GlcNAc(b1-6)]GalNAc
# Summary of the method: as §1
# [19] = target: Neu5Ac(a2-6)Gal(b1-4)GlcNAc(b1-3)Gal(b1-4)GlcNAc(b1-6)[Gal(b1-3)]GalNAc
# Summary of the method: as §1
# [20] = target: Neu5Ac(a2-6)Gal(b1-4)GlcNAc(b1-3)Gal(b1-4)[Fuc(a1-3)]GlcNAc(b1-3)Gal(b1-4)[Fuc(a1-3)]GlcNAc
# Summary of the method: as §1
# [21] = target: Neu5Ac(a2-6)Gal(b1-4)GlcNAc(b1-3)GalNAc
# Summary of the method: as §1
# [22] = target: Neu5Ac(a2-6)Gal(b1-4)GlcNAc(b1-3)[Neu5Ac(a2-6)Gal(b1-4)GlcNAc(b1-6)]GalNAc
# Summary of the method: as §1
# [23] = target: Neu5Ac(a2-6)Gal(b1-4)GlcNAc(b1-6)GalNAc
# Summary of the method: as §1
# [24] = target: Neu5Ac(a2-6)Gal(b1-4)GlcNAc(b1-6)[Gal(b1-3)GlcNAc(b1-3)]Gal(b1-4)Glc
# Summary of the method: as §1
# [25] = target: Neu5Ac(a2-6)Gal(b1-4)GlcNAc(b1-6)[Gal(b1-3)]GalNAc
# Summary of the method: as §1
# [26] = target: Neu5Ac(a2-6)Gal(b1-4)GlcNAc6S
# Summary of the method: as §1
# Neu5Ac(a2-6)GalNAc = target: Neu5Ac(a2-6)GalNAc
# Summary of the method: as §1
# [27] = target: Neu5Ac(a2-6)GalNAc(b1-4)GlcNAc
# Summary of the method: as §1
# [28] = target: Neu5Ac(a2-6)GalNAc(b1-4)GlcNAc6S
# Summary of the method: as §1
# [29] = target: Neu5Ac(a2-6)GlcNAc(b1-4)GlcNAc
# Summary of the method: as §1
# [30] = target: Neu5Ac(a2-6)GlcNAc(b1-4)GlcNAc(b1-4)GlcNAc
# Summary of the method: as §1
binder,measurement,setting,value
B1,glycan array binding signal (z-score),[1],0
same,glycan array binding signal (z-score),[2],-0.535
same,glycan array binding signal (z-score),[3],1.72
same,glycan array binding signal (z-score),[4],-0.34
same,glycan array binding signal (z-score),[5],-0.571
same,glycan array binding signal (z-score),[6],-0.282
same,glycan array binding signal (z-score),[7],-0.513
same,glycan array binding signal (z-score),[8],-0.526
same,glycan array binding signal (z-score),[9],-0.629
same,glycan array binding signal (z-score),[10],-0.379
same,glycan array binding signal (z-score),[11],-0.444
same,glycan array binding signal (z-score),[12],0.074
same,glycan array binding signal (z-score),[13],-0.696
same,glycan array binding signal (z-score),[14],-0.573
same,glycan array binding signal (z-score),[15],-0.466
same,glycan array binding signal (z-score),[16],0.655
same,glycan array binding signal (z-score),[17],-0.577
same,glycan array binding signal (z-score),[18],-0.185
same,glycan array binding signal (z-score),[19],-0.446
same,glycan array binding signal (z-score),[20],1.33
same,glycan array binding signal (z-score),[21],-0.426
same,glycan array binding signal (z-score),[22],-0.508
same,glycan array binding signal (z-score),[23],7.33
same,glycan array binding signal (z-score),[24],-0.645
same,glycan array binding signal (z-score),[25],1.48
same,glycan array binding signal (z-score),[26],-0.617
same,glycan array binding signal (z-score),Neu5Ac(a2-6)GalNAc,-0.573
same,glycan array binding signal (z-score),[27],-0.702
same,glycan array binding signal (z-score),[28],-0.294
same,glycan array binding signal (z-score),[29],-0.41
same,glycan array binding signal (z-score),[30],0.507
